Experimental data published in PMC11237553, “De novo synthetic antimicrobial peptide design with a recurrent neural network” (Protein Science : A Publication of the Protein Society, 2024).
≈ marks a conversion by molar mass, not a printed value.

Experiments:
[1] = tested on: Escherichia coli ATCC 25922; test: Broth microdilution antimicrobial susceptibility testing (MIC/MBC); format: cell-based; conditions: one maximum and one minimum data point dropped; for MIC, E. coli ATCC 25922: broth microdilution (CLSI, adapted for cationic AMPs), Mueller‐Hinton Broth, 5 ± 3 × 10^5 CFU/mL, 20–24 h at 37°C, test range 128 down to 0.25 μg/mL, lowest effective concentration range in three independent experiments in duplicate; for MBC, E. coli ATCC 25922: concentration killing 99.9% of the inoculum, plated from MIC wells, 24 h at 37°C, range in three independent experiments in duplicate
Description: (§1) Bacteria from frozen stocks were streaked onto non‐selective Columbia blood agar with 5% sheep blood (Oxoid) and incubated for 18–24 h at 37°C. The following day, 2–4 colonies were streaked onto a new agar plate and incubated for 18–24 h at 37°C to ensure uniform colony health prior to the assay. A standardized bacterial inoculum was prepared by suspending isolated colonies in Mueller‐Hinton Broth (MHB; Sigma‐Aldrich, St. Louis, MO, USA). The suspension was adjusted to an optical density of 0.08–0.1 at 600 nm, equivalent to a 0.5 McFarland standard of approximately 1–2 × 10^8 CFU/mL (CFU: colony forming units). The inoculum was then diluted 1:250 to achieve a final concentration of 5 ± 3 × 10^5 CFU/mL. The target bacterial density was confirmed by examining the total viability counts from the final inoculum.
(§2) Candidate AMPs were purchased from and synthesized by GenScript (Piscataway, NJ, USA). These were received in lyophilized format and stored at −20°C, and were suspended in sterile ultrapure water prior to testing.

[2] = tested on: Staphylococcus aureus ATCC 29213; test: as above; format: cell-based; conditions: one maximum and one minimum data point dropped; for MIC, S. aureus ATCC 29213: broth microdilution (CLSI, adapted for cationic AMPs), Mueller‐Hinton Broth, 5 ± 3 × 10^5 CFU/mL, 20–24 h at 37°C, test range 128 down to 0.25 μg/mL, lowest effective concentration range in three independent experiments in duplicate; for MBC, S. aureus ATCC 29213: concentration killing 99.9% of the inoculum, plated from MIC wells, 24 h at 37°C, range in three independent experiments in duplicate
Description: as §1, §2

[3] = tested on: Porcine red blood cells (RBCs); test: Hemolysis assay; format: cell-based, pig; conditions: 1% porcine RBC in RPMI, 37°C for 30–45 min, absorbance 415 nm, test range 128 down to 1 μg/mL, Triton‐X100 = 100%; range in three independent experiments in duplicate, one maximum and one minimum data point dropped

Compound | MIC, E. coli ATCC 25922 [1] [µg/mL] | MBC, E. coli ATCC 25922 [1] [µg/mL] | MIC, S. aureus ATCC 29213 [2] [µg/mL] | MBC, S. aureus ATCC 29213 [2] [µg/mL] | HC50 (concentration that lyses 50% of the RBCs), porcine RBCs [3] [µg/mL]
CC[C@H](C)[C@H](NC(=O)[C@H](CCCCN)NC(=O)[C@H](CS)NC(=O)[C@H](Cc1ccccc1)NC(=O)[C@H](CC(C)C)NC(=O)[C@H](CCCCN)NC(=O)[C@@H]1CCCN1C(=O)[C@H](CC(C)C)NC(=O)[C@H](CC(C)C)NC(=O)[C@H](CCCCN)NC(=O)[C@H](C)NC(=O)[C@H](C)NC(=O)[C@H](CC(C)C)NC(=O)CNC(=O)[C@H](C)NC(=O)[C@@H](NC(=O)[C@@H](NC(=O)[C@@H]1CCCN1C(=O)[C@H](CC(C)C)NC(=O)[C@@H](N)Cc1ccccc1)[C@@H](C)CC)[C@@H](C)CC)C(=O)N[C@H](C(=O)N[C@@H](CCCCN)C(=O)N[C@@H](CCCCN)C(=O)N[C@@H](CS)C(=O)O)[C@@H](C)O [DeNo1017] | 4 (≈ 1.52 µM) | 4 (≈ 1.52 µM) | 2 to 4 | 2 to 4 | 16
CC[C@H](C)[C@H](NC(=O)CNC(=O)[C@@H]1CCCN1C(=O)[C@@H](NC(=O)[C@@H](NC(=O)[C@@H]1CCCN1C(=O)[C@@H]1CCCN1C(=O)[C@H](CC(C)C)NC(=O)[C@@H]1CCCN1)[C@@H](C)CC)[C@@H](C)CC)C(=O)N[C@@H](C)C(=O)NCC(=O)N[C@@H](CCCCN)C(=O)N[C@@H](CC(C)C)C(=O)N[C@@H](CC(C)C)C(=O)NCC(=O)NCC(=O)N[C@@H](CC(C)C)C(=O)N[C@@H](CC(C)C)C(=O)NCC(=O)N[C@@H](CC(C)C)C(=O)N[C@@H](CC(C)C)C(=O)N[C@@H](CCCCN)C(=O)N[C@@H](CCCCN)C(=O)N[C@@H](CC(C)C)C(=O)O [DeNo1031] |  |  |  |  | 128
CC(C)C[C@H](NC(=O)[C@H](CCCCN)NC(=O)[C@H](CCCCN)NC(=O)[C@H](CC(C)C)NC(=O)[C@H](CC(C)C)NC(=O)CNC(=O)[C@H](CCCCN)NC(=O)[C@H](CC(C)C)NC(=O)[C@H](CC(C)C)NC(=O)[C@H](CO)NC(=O)CNC(=O)[C@H](CC(C)C)NC(=O)[C@@H](N)C(C)C)C(=O)O [DeNo1046] |  |  |  |  | > 128
CC[C@H](C)[C@H](N)C(=O)N[C@@H](CC(C)C)C(=O)NCC(=O)N[C@@H](CCCCN)C(=O)N[C@@H](CC(C)C)C(=O)N[C@@H](CC(C)C)C(=O)N[C@@H](CCCCN)C(=O)N[C@@H](CCCCN)C(=O)N[C@@H](CC(C)C)C(=O)N[C@@H](CC(C)C)C(=O)N[C@@H](CCCCN)C(=O)N[C@@H](CCCCN)C(=O)N[C@@H](CC(C)C)C(=O)O [DeNo1057] |  |  |  |  | > 128
CC[C@H](C)[C@H](NC(=O)[C@H](CCCCN)NC(=O)CNC(=O)[C@@H](NC(=O)[C@@H](NC(=O)[C@H](CCCCN)NC(=O)[C@H](C)NC(=O)[C@@H](NC(=O)[C@H](CCCCN)NC(=O)[C@H](CCCCN)NC(=O)[C@H](Cc1ccccc1)NC(=O)[C@H](CC(C)C)NC(=O)[C@H](CCCCN)NC(=O)[C@H](CCCCN)NC(=O)[C@H](Cc1ccccc1)NC(=O)[C@H](CC(C)C)NC(=O)[C@H](CO)NC(=O)[C@@H]1CCCN1C(=O)[C@H](CC(C)C)NC(=O)[C@@H](N)CCCNC(=N)N)[C@@H](C)CC)C(C)C)C(C)C)C(=O)N[C@@H](C)C(=O)N[C@@H](CCCCN)C(=O)N[C@@H](CCCCN)C(=O)N[C@H](C(=O)N[C@@H](CC(C)C)C(=O)N[C@@H](CCCCN)C(=O)N[C@@H](CCCCN)C(=O)O)[C@@H](C)CC [DeNo1026] |  |  |  |  | ≥ 128
CC[C@H](C)[C@H](NC(=O)[C@H](CCCCN)NC(=O)[C@@H]1CCCN1C(=O)[C@H](CC(C)C)NC(=O)[C@H](Cc1ccccc1)NC(=O)[C@H](CCCCN)NC(=O)[C@H](C)NC(=O)[C@H](C)NC(=O)[C@H](CC(C)C)NC(=O)CNC(=O)[C@H](C)NC(=O)[C@@H](NC(=O)[C@@H](NC(=O)[C@@H]1CCCN1C(=O)[C@H](CC(C)C)NC(=O)[C@@H](N)Cc1ccccc1)[C@@H](C)CC)[C@@H](C)CC)C(=O)N[C@@H](Cc1ccccc1)C(=O)N[C@@H](CS)C(=O)N[C@@H](CCCCN)C(=O)N[C@H](C(=O)N[C@H](C(=O)N[C@@H](CCCCN)C(=O)N[C@@H](CCCCN)C(=O)N[C@@H](CS)C(=O)O)[C@@H](C)O)[C@@H](C)CC [DeNo1016] | 4 (≈ 1.5 µM) | 4 (≈ 1.5 µM) | 2 to 4 | 2 to 8 | 4 to 8
CC[C@H](C)[C@H](NC(=O)[C@H](CCCCN)NC(=O)[C@H](CCCCN)NC(=O)CNC(=O)[C@@H](NC(=O)[C@H](CCCCN)NC(=O)[C@H](CCCCN)NC(=O)[C@H](CC(C)C)NC(=O)[C@H](CC(C)C)NC(=O)[C@H](CO)NC(=O)[C@H](CC(C)C)NC(=O)[C@H](CC(C)C)NC(=O)CN)[C@@H](C)CC)C(=O)NCC(=O)N[C@@H](CCCCN)C(=O)N[C@@H](CC(C)C)C(=O)N[C@@H](CC(C)C)C(=O)O [DeNo1022] |  |  |  |  | ≥ 128
CC[C@H](C)[C@H](NC(=O)[C@H](CCCCN)NC(=O)[C@H](CCCCN)NC(=O)[C@H](CC(C)C)NC(=O)[C@@H](NC(=O)[C@H](CCCCN)NC(=O)[C@H](CCCCN)NC(=O)[C@H](CC(C)C)NC(=O)[C@H](CCCCN)NC(=O)[C@H](CCCCN)NC(=O)[C@H](CC(C)C)NC(=O)[C@H](CC(C)C)NC(=O)[C@H](CCCCN)NC(=O)CNC(=O)[C@H](Cc1ccccc1)NC(=O)[C@H](CC(C)C)NC(=O)[C@@H](N)CCCCN)[C@@H](C)CC)C(=O)N[C@@H](C)C(=O)N[C@@H](CCCCN)C(=O)N[C@@H](CCCCN)C(=O)N[C@H](C(=O)N[C@@H](CCCCN)C(=O)N[C@@H](CCCCN)C(=O)N[C@@H](CCCCN)C(=O)N[C@@H](CC(C)C)C(=O)O)[C@@H](C)CC [DeNo1021] |  |  |  |  | > 128
CC(C)C[C@H](NC(=O)[C@H](CCCCN)NC(=O)[C@H](CCCCN)NC(=O)[C@H](CC(C)C)NC(=O)[C@H](CC(C)C)NC(=O)[C@H](CCCCN)NC(=O)[C@H](CCCCN)NC(=O)[C@H](CC(C)C)NC(=O)[C@H](CC(C)C)NC(=O)[C@H](CO)NC(=O)[C@@H]1CCCN1C(=O)[C@H](CC(C)C)NC(=O)[C@H](C)N)C(=O)O [DeNo1051] |  |  |  |  | > 128
CC[C@H](C)[C@H](NC(=O)[C@H](CCCCN)NC(=O)[C@@H]1CCCN1C(=O)[C@H](CC(C)C)NC(=O)[C@@H](N)CCSC)C(=O)N[C@@H](Cc1ccccc1)C(=O)NCC(=O)N[C@@H](CCCCN)C(=O)N[C@H](C(=O)N[C@@H](Cc1ccccc1)C(=O)N[C@@H](CCCCN)C(=O)N[C@@H](CCCCN)C(=O)N[C@H](C(=O)N[C@@H](CC(C)C)C(=O)N[C@@H](CCCCN)C(=O)N[C@@H](CCCCN)C(=O)N[C@H](C(=O)N[C@@H](CC(C)C)C(=O)N[C@@H](CCCCN)C(=O)N[C@@H](CCCCN)C(=O)N[C@H](C(=O)N[C@@H](CC(C)C)C(=O)N[C@@H](CCCCN)C(=O)N[C@@H](CCCCN)C(=O)N[C@H](C(=O)N[C@@H](CC(C)C)C(=O)N[C@@H](CCCCN)C(=O)N[C@@H](CCCCN)C(=O)N[C@@H](CC(C)C)C(=O)N[C@@H](CC(C)C)C(=O)N[C@@H](CCCCN)C(=O)N[C@@H](CCCCN)C(=O)N[C@@H](CC(C)C)C(=O)O)[C@@H](C)CC)[C@@H](C)CC)[C@@H](C)CC)[C@@H](C)CC)[C@@H](C)CC [DeNo1039] | > 128 | > 128 | > 128 | > 128 | 32 to 64
CC[C@H](C)[C@H](NC(=O)[C@H](CO)NC(=O)[C@@H]1CCCN1C(=O)[C@H](CC(C)C)NC(=O)[C@@H](N)CCSC)C(=O)N[C@@H](CC(C)C)C(=O)NCC(=O)N[C@@H](C)C(=O)N[C@@H](CC(C)C)C(=O)N[C@@H](CC(C)C)C(=O)N[C@@H](CCCCN)C(=O)N[C@@H](CC(C)C)C(=O)N[C@@H](CC(C)C)C(=O)O [DeNo1040] |  |  |  |  | > 128
CC[C@H](C)[C@H](NC(=O)[C@H](CCCCN)NC(=O)CNC(=O)[C@H](C)NC(=O)[C@@H](NC(=O)[C@H](CCCCN)NC(=O)[C@@H]1CCCN1C(=O)[C@H](CC(C)C)NC(=O)[C@@H](N)Cc1c[nH]c2ccccc12)[C@@H](C)CC)C(=O)N[C@@H](C)C(=O)NCC(=O)N[C@@H](CCCCN)C(=O)N[C@@H](CC(C)C)C(=O)N[C@@H](CC(C)C)C(=O)N[C@@H](CCCCN)C(=O)N[C@@H](CCCCN)C(=O)N[C@@H](CC(C)C)C(=O)N[C@@H](CC(C)C)C(=O)N[C@@H](CCCCN)C(=O)N[C@@H](CCCCN)C(=O)N[C@H](C(=O)N[C@@H](CCCCN)C(=O)N[C@@H](CCCCN)C(=O)N[C@@H](CCCCN)C(=O)O)[C@@H](C)CC [DeNo1018] |  |  |  |  | 128
CC(C)C[C@H](NC(=O)[C@H](CCCCN)NC(=O)[C@H](CCCCN)NC(=O)[C@H](CC(C)C)NC(=O)[C@H](CC(C)C)NC(=O)[C@H](CCCCN)NC(=O)[C@H](CCCCN)NC(=O)[C@H](CC(C)C)NC(=O)[C@H](CC(C)C)NC(=O)[C@H](CO)NC(=O)[C@H](CC(C)C)NC(=O)[C@H](CC(C)C)NC(=O)[C@H](C)N)C(=O)O [DeNo1049] |  |  |  |  | > 128
